In all, about 33,000 sequences were measured (“E-score (-0.5 to 0.5)”: median about -0.012, highest 2% from about 0.27 on). Some of the results follow.
biological target: T1, Vhr1 (UniProt P40522); assay: PBM E-score (8-mer binding enrichment) (E-score (-0.5 to 0.5)); higher = stronger / more preferred TF binding; most listed sequences are background and not binding sites; conditions: protein concentration: 200 nM; construct: GST-full length
T1 sequence: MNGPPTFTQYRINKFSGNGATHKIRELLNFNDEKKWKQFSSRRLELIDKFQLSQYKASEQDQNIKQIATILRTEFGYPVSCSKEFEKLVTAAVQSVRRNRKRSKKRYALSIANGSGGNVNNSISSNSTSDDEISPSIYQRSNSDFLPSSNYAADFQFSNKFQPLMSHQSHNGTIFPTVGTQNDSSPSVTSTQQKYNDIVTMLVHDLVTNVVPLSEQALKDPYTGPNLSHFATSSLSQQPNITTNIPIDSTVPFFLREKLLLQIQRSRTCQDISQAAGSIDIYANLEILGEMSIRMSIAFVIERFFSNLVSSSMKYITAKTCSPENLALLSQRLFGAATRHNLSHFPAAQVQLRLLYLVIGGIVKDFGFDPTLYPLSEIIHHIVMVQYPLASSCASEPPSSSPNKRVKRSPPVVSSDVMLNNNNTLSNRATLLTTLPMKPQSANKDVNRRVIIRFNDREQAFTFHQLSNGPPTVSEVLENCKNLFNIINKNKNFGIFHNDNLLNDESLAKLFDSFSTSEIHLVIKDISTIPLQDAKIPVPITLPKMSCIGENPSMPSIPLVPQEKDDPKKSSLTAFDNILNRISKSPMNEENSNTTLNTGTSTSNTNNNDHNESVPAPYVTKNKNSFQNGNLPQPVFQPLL
Procedure, shortened: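 E-scores (a modified Wilcoxon-Mann-Whitney statistic) were assigned by the Universal PBM Analysis Suite to every ungapped eight-base word pooled with its reverse complement. The input came from universal all-10-mer Agilent arrays made double-stranded by primer extension and probed with GST-tagged yeast transcription factors at about 100-200 nM. Fluorescent anti-GST detected bound protein, and masliner normalised the scans.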

Row | Sequence | PBM E-score
1 | GCCACCAA | 0.0796
2 | CACACCAA | 0.241
3 | ATGTCATA | 0.106
4 | GTTCTAGA | -0.0643
5 | CTGCTCCA | -0.0336
6 | AGCTTTTG | -0.324
7 | TCGTCGAA | -0.0649
8 | ACTCGTCG | 0.0708
9 | TATTTTCA | 0.0219
10 | TCTGGGAA | -0.135
11 | AGCTACCT | 0.0163
12 | ATTGCGAG | 0.117
13 | AATCGACA | 0.112
14 | GATTGCCA | 0.0953
15 | AACCAAAT | 0.0232
16 | CTGCGTTA | -0.0554
17 | GCATGACA | -0.0701
18 | CTTCGGCC | -0.243
19 | ATAGACAT | 0.16
20 | GGAGACCC | 0.0954
21 | GGCTGTGA | 0.0773
22 | GAGCAACC | 0.0833
23 | ATTAGACG | -0.0382
24 | ATTGAATA | 0.0225
25 | CGAACGGC | -0.124

Row | Sequence | PBM E-score
26 | ATTATGAG | 0.0245
27 | ATCCACAG | 0.167
28 | AGTAGGGG | -0.101
29 | AGTCTTCA | 0.011
30 | AAAGTTGT | 0.0763
31 | AACGAGGC | -0.0752
32 | AGGTCGGA | 0.0419
33 | TGCTTAAA | -0.175
34 | GCCCTTCA | -0.063
35 | CATGTATC | 0.18
36 | CCAACGGG | 0.147
37 | CGGTATCA | 0.148
38 | GACGTCCC | -0.166
39 | AGAACATG | 0.101
40 | CGGCTGCC | 0.18
41 | AGGATGTG | 0.142
42 | ACGGGCCG | -0.114
43 | TCCAGTCA | 0.0988
44 | GATTTAGC | 0.0206
45 | TAAACCAA | -0.277
46 | ATTTACTC | 0.0979
47 | AGCGTAAT | -0.0972
48 | CCTCGTCG | 0.119
49 | CAGGGGTC | -0.0113
50 | TGGAGCCA | 0.0769

Row | Sequence | PBM E-score
51 | AGATAGGC | -0.0638
52 | TACTAAGA | 0.0316
53 | AAGACTGG | 0.084
54 | CGACAGAG | 0.0418
55 | CGAGTCCG | 0.286
56 | CTGGAAAA | -0.0136
57 | CTGCGGAC | -0.0734
58 | CTAGTTAA | -0.054
59 | AACTCGGC | 0.00687
60 | GGGTCCAC | -0.152
61 | ACTGCAGA | -0.0788
62 | ACCACAGC | 0.0438
63 | TCGTGACA | 0.0389
64 | CCCCCGGG | -0.0967
65 | GGAGCAGA | -0.186
66 | AGAAGGTC | 0.103
67 | GAGGTGGA | -0.125
68 | GCCGAGGA | 0.109
69 | ACCGAAGG | -0.0663
70 | AGAAGTAT | 0.0798
71 | CGCGTAGA | -0.109
72 | AGCACGGG | -0.0752
73 | CATACCTA | 0.154
74 | ACGTGCCG | -0.0795
75 | CAATAGAG | -0.121

Row | Sequence | PBM E-score
76 | AATGACAT | 0.0292
77 | TAAAGTAA | -0.152
78 | ACCTCAAG | -0.142
79 | CATTGAAC | 0.109
80 | CTTGACCC | -0.161
81 | AGATCAGG | -0.109
82 | GTTCTATA | 0.0332
83 | CTTCATGC | -0.0664
84 | AGCGTCAC | -0.205
85 | ACCGCCAG | 0.104
86 | GAAAGTAA | -0.149
87 | AAGTGACG | -0.126
88 | ACATCGGT | 0.204
89 | AAGAGCAA | -0.202
90 | CCCATAGA | -0.0433
91 | CGCTAAAA | -0.0348
92 | GTGCGCAC | 0.264
93 | CCTGATAG | -0.168
94 | ATCGGTCC | -0.0251
95 | AGAGCTCG | -0.206
96 | GTCTCGGA | 0.111
97 | AGGCTTGC | -0.173
98 | CTTCAGGA | 0.0283
99 | AGTCAAAA | 0.0686
100 | CCAGCATA | 0.0195

Row | Sequence | PBM E-score
101 | ACACTTCA | -0.147
102 | ATGATTCC | 0.445
103 | GAGTCGAA | 0.269
104 | GGCGCGTA | -0.0776
105 | GATATTCC | -0.00471
106 | CCCCCCTA | -0.172
107 | CGCATATA | -0.00473
108 | TATGCACA | 0.0469
109 | ACTTTACC | 0.0552
110 | TGGGATAA | -0.238
111 | TCCTAGGA | -0.242
112 | AACCGAAT | 0.0718
113 | ATCTGTCA | -0.0327
114 | CTCGATTC | -0.161
115 | GCAAGTAA | 0.0248
116 | ACTGAGAC | 0.0998
117 | ATGGCTTC | 0.00791
118 | ATTACGCC | 0.00227
119 | AAATATCC | -0.0568
120 | ACGCCGAC | 0.247
121 | TCGGTTAA | 0.0423
122 | CGGGTGGA | 0.175
123 | CTGCGAGC | 0.149
124 | CACCTTGG | 0.0454
125 | GCAGGCTA | -0.168

Row | Sequence | PBM E-score
126 | ACGTGGGC | -0.129
127 | CTGCCGGA | -0.0516
128 | ATTTCCGG | -0.0384
129 | ATCTTCAG | 0.00377
130 | GTGTGGCA | -0.102
131 | AAATTGGT | 0.0399
132 | TGGTTACA | 0.201
133 | ATACCTTC | -0.0805
134 | ACCAGAAG | -0.0723
135 | ACAGACTA | -0.209
136 | GTAAATTA | -0.151
137 | CAGGCCGC | -0.136
138 | ACCTTCAG | -0.0596
139 | ATTCCAAT | -0.0586
140 | AAGGCGCG | -0.099
141 | ATGCAATC | 0.149
142 | ATGGACTA | 0.125
143 | CGTATGAA | 0.114
144 | CTTCTTTA | -0.166
145 | CACACGAA | 0.135
146 | AAACCCGC | 0.0774
147 | ATGCCGAG | 0.00505
148 | CCGGCTCA | 0.0508
149 | TCTCCCCA | 0.0293
150 | ATGCCGGA | 0.0298

Row | Sequence | PBM E-score
151 | GGCCGGTA | 0.19
152 | TAAGGGTA | -0.14
153 | CAATAACC | 0.139
154 | GAAACAGA | -0.14
155 | TACCCACA | 0.192
156 | TAGATTGA | -0.0407
157 | ACTAAGCC | 0.0315
158 | CCATATCG | 0.245
159 | ACCCTTCA | -0.0667
160 | CCTTATAG | 0.0603
161 | CACAGGTA | 0.0614
162 | CTACCTAC | 0.00587
163 | CTGCCGGC | -0.098
164 | GTGGAACA | -0.00567
165 | AACTACTT | 0.035
166 | CAAGCGGG | -0.0608
167 | GGGGTCAC | 0.14
168 | AGAAATTA | -0.11
169 | AGAGGAGA | -0.123
170 | CAACGAAC | -0.0458
171 | CAAGGACG | -0.16
172 | ACCTAACA | 0.0407
173 | GCTGCACA | 0.0702
174 | ACTTGAGG | -0.11
175 | GAAACGAC | 0.089

Row | Sequence | PBM E-score
176 | AAAAAAAC | -0.286
177 | ACCCCGTA | 0.0517
178 | CCTTTTTC | -0.0918
179 | GTAGTTTA | -0.0732
180 | GAATAGCA | 0.00455
181 | AGACAGTG | -0.0783
182 | AGACTTTA | -0.334
183 | AGCACAGA | 0.124
184 | GAAATCTA | -0.149
185 | ATGTCTGG | 0.0869
186 | AGAATTCT | -0.0341
187 | CCTGTCGC | -0.0335
188 | AGGGAATG | 0.0512
189 | GTGACAGA | -0.16
190 | ACTGAACG | -0.142
191 | AACAGTAC | 0.0913
192 | CTTGAGGC | -0.174
193 | ATTGTACA | -0.0219
194 | TTATGCAA | 0.0181
195 | AAGTACGC | -0.0238
196 | ACGCTGGC | 0.0666
197 | GACTGTGC | 0.0456
198 | CCCCTGCG | -0.113
199 | CCGACCCA | 0.114
200 | CGCCGGCA | -0.107

Row | Sequence | PBM E-score
201 | CAAAGGCC | -0.263
202 | ACGGGCCA | -0.101
203 | ATTCGCGA | 0.0967
204 | CCCCCCCG | -0.162
205 | AAAAGCCT | -0.344
206 | ATAGTCAT | 0.411
207 | GAAGTCAA | 0.0872
208 | AGCCTTTC | -0.265
209 | ATTCAACA | 0.213
210 | CCTTTAAC | -0.173
211 | AATCCTTA | -0.15
212 | CACGCTCC | -0.154
213 | CAGATATA | 0.109
214 | CGAATCCG | 0.141
215 | AGATCGGA | 0.114
216 | CCTGATTA | 0.158
217 | AATTGTCC | -0.176
218 | ACAGTACA | 0.0785
219 | ACACAAAG | 0.163

— the supplement of paper PMC3334620
